Data reported in PubChem BioAssay AID1963443 (Molecular Pharmacology Branch, DTP, NCI, 2024).
For part of its entries the source gives two or more results. This is not the full list of results. The source may hold further records. Values given together are repeated measurements in other runs, samples, wells, individuals or studies. Counts like (3×) say how often a value occurs here. A date in brackets names the month of the test.

System: MDA-MB-231 complex spheroids, growth inhibition
Assay: Anticancer human tumor MDA-MB-231 cell line growth inhibition [Asc];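 also: spheroids exposed to compounds for 7 days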
Conditions: stronger effect = lower value
Procedure: Multicellular complex tumor spheroid response to apoptosis pathway targeting inhibitors Alrizomadlin, Pelcitoclax, and Dasminapant in combination with a variety of drugs and investigational agents in selected tumor cell lines
The MDM2 inhibitor alrizomadlin, the Bcl-2/Bcl-xL inhibitor pelcitoclax, and the IAPs inhibitor dasminapant were evaluated both individually and in combination with standard of care and investigational anticancer small molecules within a complex spheroid model of solid tumors. . Complex spheroids include a stromal component modeled by human endothelial cells (HUVEC) and fibroblasts modeled by human mesenchymal stem cells (MSCs). The concentration ranges selected for each drug and investigational agent were based upon clinically achievable concentrations if the clinical Cmax of the agent was known.
Compounds. The drugs and investigational agents: alrizomadlin (APG-115; NSC831270), pelcitoclax (APG-1252; NSC835773), dasminapant (APG-1387;NSC834197), TAK-243 (NSC785004), copanlisib (NSC809693), olaparib (NSC753686), talazoparib (NSC767125), cobimetinib (NSC 768068), eltanexor (KPT-8602, NSC 794443), abemaciclib (NSC 768073), sotorasib (NSC818433), adagrasib (NSC 831453), MRTX-1133 (NSC 836407), Iadademestat (ORY1001, NSC 806812), and RMC-4630 (NSC839698), were obtained from the NCI Developmental Therapeutics Program Chemical Repository. The FDA-approved anticancer drug set is available from the Developmental Therapeutics Program at https://dtp.cancer.gov/organization/dscb/obtaining/available plates.htm. […] The stock solutions were prepared in dimethyl sulfoxide (DMSO, Sigma-Aldrich, St. Louis, MO, cat. D2650) at 800-fold the tested concentration and stored at -70 degrees C prior to their use. All drugs and investigational agents were tested over a range starting from a high concentration at or near the clinical Cmax and decreasing in half-log increments. If the clinical Cmax for an agent had not been determined, the highest concentration tested was 10 microM.
The patient-derived cancer (PDC) cell lines include five colon adenocarcinomas: 186277-243-T-J2-PDC, 616215-338-R-J1-PDC, 439559-082-T-J2-PDC, 463943-066-T-J2-PDC, and 519858-162-T-J1-PDC; three pancreatic carcinomas: 323965-272-R-J2-PDC, 521955-158-R6-J3-PDC, and 521955-158-R2-J5-PDC; two uterine sarcomas: 327498-152-R-J2-PDC and 993429-296-R-J1-PDC; two rhabdomyosarcomas: 755483-174-R-J1-PDC and 772245-204-R-J1-PDC; two soft tissue sarcomas: 126254-015-R-J1-PDC and 494315-158-R-J1-PDC; two malignant fibrous histiocytomas: 317291-083-R-J1-PDC and 596521-263-R-J1-PDC; two breast carcinomas: 171881-019-R-J1-PDC and 885512-296-R-J2-PDC; and one ovarian carcinoma: 6556581-035-R-J-PDC were obtained from the NCI PDMR, (https://pdmr.cancer.gov). […]

## O=C(c1cc(Cc2n[nH]c(=O)c3ccccc23)ccc1F)N1CCN(C(=O)C2CC2)CC1
Compound alone 10 µM
  viability, T/C: 65.7%, 72.9%, 6.29%

## CCN1C(C(=O)NC23CCC(C(=O)O)(CC2)CC3)C(c2cccc(Cl)c2F)C2(C(=O)Nc3cc(Cl)ccc32)C12CCCCC2 (centres undefined)
Compound alone 3 µM
  viability, T/C: 101 (2×), 104 (2×), 105, 107, 92.4, 98.8, 97.8, 97.2, 102, 96.5, 96.3, 109, 127%

## CNC(C)C(=O)NC1CN(S(=O)(=O)c2cccc(S(=O)(=O)N3CCC4CCC(C(=O)NC(c5ccccc5)c5ccccc5)N4C(=O)C(NC(=O)C(C)NC)C3)c2)CCC2CCC(C(=O)NC(c3ccccc3)c3ccccc3)N2C1=O (centres undefined)
Compound alone 0.316 µM
  viability, T/C: 1.17, 0.93, 1.02, 1.27, 1.11, 0.94, 0.81, 1.06, 2.1, 1.66, 0.86, 1.13, 1.88% [2022-10] and 107% [2022-11]
Compound alone 1 µM
  viability, T/C: 0.97 (2×), 1.13, 1.1, 1.61, 1.29, 1.26, 1.21, 1.17, 0.98, 0.99, 1.31, 2.07% [2022-10] and 111% [2022-11]
